The campaign covered roughly 280,000 compounds. About 100 (0.036%) were called active. Inconclusive results, whose numbers are uncertain, are shown with a selection of clear calls. Calls follow the shape of the dose curve; as a rule, active = well fitted inhibition curve with a large enough effect in the signal ratio, with a control signal flat (not every such curve was filed as active); inconclusive = small, poorly fitted or top-dose-only effect, or effect the other way, or a change in a side signal; inactive = no such curve, though single readings can be large or run the other way; the % refers to the signal ratio. Where the call is inconclusive, the potency comes from a doubtful curve fit. A note “side channel” means that the fit belongs to a control or component signal, not to the main read-out.
Each compound was assayed against Muscleblind-like protein 1 (Homo sapiens) (UniProt Q9NR56) (assay: qHTS Assay for Inhibitors of MBNL1-poly(CUG) RNA binding). Conditions: TR-FRET MBNL1-His/biotin-(CUG)12 binding, 665/545 ratio; series mostly up to 57.5 µM.
Chain of UniProt Q9NR56 (Q9NR56 whole entry, looked up): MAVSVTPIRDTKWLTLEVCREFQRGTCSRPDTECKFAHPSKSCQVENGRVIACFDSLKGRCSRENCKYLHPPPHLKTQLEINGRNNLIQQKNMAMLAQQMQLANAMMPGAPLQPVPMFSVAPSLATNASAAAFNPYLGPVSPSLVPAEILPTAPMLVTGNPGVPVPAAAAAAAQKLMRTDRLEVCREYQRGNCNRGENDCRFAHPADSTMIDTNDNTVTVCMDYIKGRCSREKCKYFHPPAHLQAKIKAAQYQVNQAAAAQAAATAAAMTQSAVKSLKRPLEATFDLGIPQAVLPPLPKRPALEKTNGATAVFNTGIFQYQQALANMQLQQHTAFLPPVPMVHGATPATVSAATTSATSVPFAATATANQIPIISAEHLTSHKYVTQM
Summary of the method: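 Compound titration spanned 92 nM–58 uM against the MBNL1-His/biotin-(CUG)12 complex. After 60 min at room temperature with 5 nM streptavidin-XL665 and 0.055 ng/ul terbium anti-His, ratiometric 665/545 nm emission (Ex 340 nm) normalized to controls.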
Potency is read from the fitted curve at half-maximal effect; tags tell the direction and shape of the fitted curve or compound fluorescence and quenching.

Compound	Potency
O=C(NC1CCCCC1)c1cc([N+](=O)[O-])ccc1N1CCOCC1	inconclusive: 28.2 µM [quencher, side channel, partial curve]
O=c1nc2n(Cc3ccccc3)c3ccccc3cc-2c(=O)[nH]1	inconclusive: 5.62 µM [quencher, side channel, full curve]
Cc1cc2cc(CN(Cc3ccc4c(c3)OCO4)C(=O)c3cnccn3)c3nnnn3c2cc1C	inactive
CC1(C)CC(CC(=O)NC(=S)Nc2ccc([N+](=O)[O-])cc2)C(=O)O1 (stereo not given)	inconclusive: 14.1 µM [quencher, side channel, partial curve]
CC(C)N1CCC(=NNc2ccc(S(=O)(=O)N3CCOCC3)cc2[N+](=O)[O-])CC1	inconclusive: 15.8 µM [quencher, side channel, partial curve]
CC(C)(C)NC(=O)CN1CCC(O)(c2ccc3c(c2)OCO3)CC1	inactive
CC(/C=N/n1cnnc1)=C\c1ccccc1	inconclusive: 15.8 µM [quencher, side channel, partial curve]
C/C(=C\C(=O)c1cccnc1)Nc1ccc(O)cc1	inconclusive: 28.2 µM [quencher, side channel, partial curve]
COc1ccc(C(=O)N2CC3(C)CC2CC(C)(C)C3)cc1OC (stereo not given)	inconclusive: 39.8 µM [quencher, side channel, single point]
COc1ccc(-c2cc(=O)oc3cc(OC(C)C(=O)NCc4ccccn4)ccc23)cc1 (stereo not given)	inconclusive: 22.4 µM [quencher, side channel, partial curve]
Cc1ccc(NC2CCCN(C(=O)c3ccc(F)cc3)C2)cc1C (stereo not given)	inactive
C=CCOn1c(=O)c(-c2cccs2)[n+]([O-])c2ccccc21	inconclusive: 12.6 µM [quencher, side channel, partial curve]
CN1CCN(c2ccc([N+](=O)[O-])cc2S(=O)(=O)N2CCOCC2)CC1	inconclusive: 8.91 µM [quencher, side channel, partial curve]
CC(C(=O)O)N1C(=O)/C(=C/C=C/c2ccco2)SC1=S (stereo not given)	inconclusive: 35.5 µM [quencher, side channel, single point]
Cc1cnc(NC(=O)c2nn(C)cc2[N+](=O)[O-])s1	inconclusive: 15.8 µM [quencher, side channel, partial curve]
COc1ccc([N+](=O)[O-])cc1N(CC(=O)NCCCOC(C)C)S(C)(=O)=O	inconclusive: 28.2 µM [quencher, side channel, partial curve]
O=C(COC(=O)c1ccccc1[N+](=O)[O-])NNC(=O)c1cccs1	inconclusive: 22.4 µM [quencher, side channel, partial curve]
Cc1ccc(NC(=O)c2ccccc2)cc1-n1cnnn1	inconclusive: 12.6 µM [quencher, side channel, partial curve]
COc1ccc(NC(=O)COc2cccnc2[N+](=O)[O-])cc1OC	inconclusive: 44.7 µM [quencher, side channel, partial curve, poor fit]
COc1ccc(NC(=O)COC(=O)CCc2cc(OC)c(OC)c(OC)c2)c([N+](=O)[O-])c1	inconclusive: 3.55 µM [quencher, side channel, full curve]

Compound	Potency
CN(CCc1ccccn1)S(=O)(=O)c1ccc2c3c(cccc13)C(=O)N2	inconclusive: 15.8 µM [quencher, partial curve]
Cc1ccc(C(=O)N/C(=C/c2ccc(-c3cccc([N+](=O)[O-])c3)o2)C(=O)NCCCN(C)C)cc1	inconclusive: 14.1 µM [quencher, side channel, partial curve]
CCn1cc(C(=O)N2CCCC(C(=O)c3ccc4ccccc4c3)C2)cn1 (stereo not given)	inconclusive: 35.5 µM [quencher, side channel, single point]
COC(=O)c1c(N)n(CCCN2CCOCC2)c2nc3ccccc3nc12	inconclusive: 15.8 µM [quencher, side channel, partial curve]
COc1ccccc1/C=C1/SC(=S)N(C(C)C(=O)NC2C=CS(=O)(=O)C2)C1=O (stereo not given)	inconclusive: 25.1 µM [quencher, side channel, partial curve]
CCC(COC(=O)Nc1cccc(C)c1)NC(=O)OCC(C)C (stereo not given)	inactive
Oc1ccc2ccccc2c1CN1CCOCC1	inactive
COC(=O)c1cn[nH]c1NC(=S)Nc1ccc(C)cc1Cl	inactive
N#Cc1c(N)n(-c2cccc(C(=O)O)c2)c2nc3ccccc3nc12	inconclusive: 15.8 µM [quencher, side channel, partial curve]
CC1(OC(=O)C2CCCC2)C(=O)C=C2C=C3CCCCN3C=C2C1=O (stereo not given)	inconclusive: 12.6 µM [quencher, side channel, partial curve]
COC(=O)/C(C#N)=C1/C=Cc2ccccc2N1C	inconclusive: 10 µM [quencher, side channel, partial curve]
O=C(COC(=O)c1ccccc1O)Nc1cccc(S(=O)(=O)NC2=NCCCCC2)c1	inactive
CCn1cc(Br)c(C(=O)Nc2ccc(F)c(Cl)c2)n1	inactive
CCc1ccccc1NC(=O)c1cc([N+](=O)[O-])ccc1N1CCOCC1	inconclusive: 10 µM [quencher, partial curve]
CCc1nc(=O)c(-c2ccccc2)c(C)n1-c1ccccc1	inactive
CCOC(=O)C1CCN(C(=O)Nc2ccc3nccnc3c2)CC1	inconclusive: 22.4 µM [quencher, side channel, single point]
Cc1ccc(/C=c2\sc3n(c2=O)CN(c2cccc(Br)c2)CN=3)o1	inconclusive: 22.4 µM [quencher, side channel, partial curve]
CC(=O)c1ccc(N2CCN(c3ccnc4cc(Cl)ccc34)CC2)cc1	inactive
COc1ccc(/C=C/C(=O)Nc2ccc(S(=O)(=O)Nc3onc(C)c3C)cc2)cc1OC	inconclusive: 25.1 µM [quencher, partial curve]
CC(Sc1cnc2ccccc2n1)C(=O)O (stereo not given)	inconclusive: 8.91 µM [fluorescent, side channel, partial curve]

Compound	Potency
COC(=O)c1ccc(Sc2ccccn2)c([N+](=O)[O-])c1	inconclusive: 20 µM [quencher, side channel, partial curve]
CCN1C(=O)/C(=C\c2ccncc2)SC1=S	inconclusive: 17.8 µM [quencher, side channel, partial curve]
OC1(c2ccc3ccccc3c2)CCN(Cc2ccccc2)C1 (stereo not given)	inconclusive: 50.1 µM [inhibitor, partial curve]
CCn1c(=O)c([N+](=O)[O-])c(NCCc2ccc(OC)c(OC)c2)c2ccccc21	inconclusive: 25.1 µM [quencher, side channel, single point]
O=C(c1ccccc1)c1ccc(C(=O)N2CCN(c3ccc(F)cc3)CC2)o1	inconclusive: 35.5 µM [quencher, side channel, single point]
COC(=O)c1cc(NS(=O)(=O)c2ccc(N3CCCCC3)c([N+](=O)[O-])c2)cc(C(=O)OC)c1	inactive
Cc1cccc(Oc2ncnc(N)c2[N+](=O)[O-])c1C	inconclusive: 2.24 µM [quencher, side channel, partial curve, poor fit]
N=c1c(C(=O)NCc2ccc(F)cc2)cc2c(=O)n3ccccc3nc2n1CC1CCCO1 (stereo not given)	inconclusive: 3.98 µM [quencher, side channel, full curve]
COC(=O)Cc1ccc(NC(=S)N2CCCC(CO)C2)cc1 (stereo not given)	inactive
CONC(=O)Nc1ccccc1[N+](=O)[O-]	inconclusive: 10 µM [quencher, side channel, partial curve]
COc1ccc(C(=O)CSc2nnc(CNc3ccc(F)cc3)o2)cc1	inactive
O=C(COc1cccnc1[N+](=O)[O-])Nc1cccc(S(=O)(=O)N2CCOCC2)c1	inconclusive: 12.6 µM [quencher, side channel, partial curve]
Cn1cc(/C=N/n2cnc3scc(-c4ccc(Cl)cc4)c3c2=O)c2ccccc21	inactive
COc1ccc(C(C)=O)cc1COC(=O)Cn1cnc2ccccc2c1=O	inconclusive: 0.891 µM [fluorescent, side channel, single point]
CC1=CC(=C2C(=O)c3ccccc3C2=O)C=C(C)N1C	inconclusive: 20 µM [quencher, side channel, partial curve]
Cc1cc(-c2ccc3ccccc3c2)n2ncnc2n1	inconclusive: 15.8 µM [quencher, side channel, partial curve]
COc1ccc(OC(C)C(=O)Nc2cccc([N+](=O)[O-])c2)cc1 (stereo not given)	inconclusive: 7.94 µM [quencher, side channel, partial curve]
COc1ccc(S(=O)(=O)N2CCCCC2)cc1NS(=O)(=O)c1cc(Cl)ccc1Cl	inconclusive: 0.891 µM [fluorescent, side channel, full curve, poor fit]
O=[N+]([O-])c1ccc2oc(C3CCCCC3)nc2c1	inconclusive: 12.6 µM [quencher, side channel, partial curve]
Cc1cccc(N/N=C/c2ccncc2)c1	inconclusive: 14.1 µM [quencher, side channel, partial curve]
